Values marked as one replicate rest on one cluster of the flow cell; about a third of the high ones do not repeat.

This is an account of results in the supplement of paper PMC10126150.

This series has as its system ATP. Kind of series: switch fluorescence ratio, 500 uM ATP over buffer (Cy3 cluster intensity, sum of 5 cycles each) (fold (ratio)); higher = stronger signal-on switching upon ATP binding; sequences stand for … in TCGTCGGCAGCGTCAGATGTGTATAAGAGACAGTTTTTTTTTTTTTTTTTTTTTTTTT…TC. Conditions: aptamer strand: ATP DNA aptamer (quencher-CACCTGGGGGAGTATTGCGGAGGAAGG + anchor), 100 nM annealed; ATP concentration: 500 uM; one replicate. The essentials:
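Exposure to 500 uM ATP lasted 15 min at 22 °C before imaging, and a selection-buffer image was taken beforehand, for Cy3-labelled switching-strand clusters on a modified Illumina MiSeq flow-cell annealed to 100 nM quencher-labelled ATP aptamer. Five buffer/ATP cycles were run with NaOH stripping and re-annealing between them. The fluorescence ratio per cluster is summed target-cycle over summed buffer-cycle Cy3 intensity, averaged per switch-domain sequence. Clusters outside 100-1000 RFU were excluded.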

Consider GAAGGAGCCA, for which the switch fluorescence ratio is 0.933.
The value for GAGAGCTCAT was 1.04; that for CTGCGCACCT was 1.64; that for GGGTTTGTGA was 0.975.
With GGGGTCGCAG, the switch fluorescence ratio is 0.981.
In the case of GGTTATGACT, the switch fluorescence ratio was 1.07.
Take ATGAAGTTCC: the switch fluorescence ratio came out at 1.06.
Take AATAAGGGCA: the switch fluorescence ratio was 1.02.
Turning to GGTTCTGAAG, the switch fluorescence ratio is 1.04.
For AACACCATAA, the switch fluorescence ratio worked out at 1.04.
For the sequence GGGGATCGT, the switch fluorescence ratio turned out to be 0.993.
For CGGTACCCTT, the switch fluorescence ratio worked out at 1.04.
In the case of GAGTGAATTC, the switch fluorescence ratio was 1.05.
Take CTTTCCCATT: the switch fluorescence ratio amounted to 1.03.
Turning to GGGGTTAACC, the switch fluorescence ratio was found to be 1.01.
TTAAGCGTGT: the switch fluorescence ratio amounted to 0.965.
For GAGTAGCAGT the value was 1.04; for AGCTGGCTCG, 0.966; for AGGTTCGCA, 0.996.
For the sequence TAAGTGTTAC, the switch fluorescence ratio worked out at 1.03.
Take GGAGTATACC: the switch fluorescence ratio stood at 0.98.
For CGTACCTCG the value was 1.08.
On to GGGAAGGCCT, for which the switch fluorescence ratio worked out at 1.04.
For TGGCAGTTGG the value was 1.02.
As for CTAAACGGCC, the switch fluorescence ratio was 1.04.
AGGCGAAAGC: the switch fluorescence ratio worked out at 0.972.
As for TTGTTAGTC, the switch fluorescence ratio was determined as 1.
Regarding TTTGTCTCGC, the switch fluorescence ratio was determined as 0.991.
For the sequence TGATAAACAG, the switch fluorescence ratio is 1.04.
In the case of CACTTTAGGG, the switch fluorescence ratio was 0.952.
As to TAACTGGGCG, the switch fluorescence ratio came to 1.01.
For GCGGGTTGTT the value was 1.03; for CATGATTAG, 1.02; for TGCCCCGTGG, 1.27.
As to CGAGATATCT, the switch fluorescence ratio is 0.992.
Regarding CCAAGTCAGC, the switch fluorescence ratio came to 1.24.
Consider ATTCGGAGA, for which the switch fluorescence ratio was 1.
On to TCTGTAACTC, for which the switch fluorescence ratio is 1.05.
As to CGCCTACTAA, the switch fluorescence ratio amounted to 1.03.
For ATGGATCATG the value was 1.02; for AGTGTAATAG, 1.07; for CGTATCGTCC, 0.968.
In the case of TGCGGGATT, the switch fluorescence ratio stood at 1.01.
For ATCGTTTTTC the value was 1.03.
Regarding CGAAGAAGGG, the switch fluorescence ratio came out at 0.949.
Regarding CTTACCTTAT, the switch fluorescence ratio was determined as 1.08.
For AGGCTTAGTA the value was 1.04; for TTTTGCGTAG, 1.05.
As for TAGTGGTGAC, the switch fluorescence ratio amounted to 0.967.
On to ATAGGTGGAC, for which the switch fluorescence ratio came out at 1.02.
For GACAGTAGAA, the switch fluorescence ratio came to 1.03.
Consider AAGGGCACGG, for which the switch fluorescence ratio was found to be 1.01.
Take TCTAACGCCA: the switch fluorescence ratio is 1.38.
Regarding GCATCTAAGT, the switch fluorescence ratio amounted to 1.05.
As to GCCATGGTTT, the switch fluorescence ratio was determined as 1.05.
For TAAAACGTGG, the switch fluorescence ratio amounted to 0.984.
Take GGAAGGTAAA: the switch fluorescence ratio is 1.06.
On to CCTTATTCCC, for which the switch fluorescence ratio was found to be 1.36.
For ATCTGAAGAC, the switch fluorescence ratio came out at 2.66.
The value for CGCCGTACCA was 1.05; that for ATTACGGGCG was 1.02.
For ATACAGAGGT the value was 1.04.
As for ACTATGGTAC, the switch fluorescence ratio is 1.1.
For the sequence CCTGTATTTC, the switch fluorescence ratio is 0.994.
As for TCAGTGTTCC, the switch fluorescence ratio is 1.05.
In the case of AAACCAAGTA, the switch fluorescence ratio is 1.03.
As for AGACGCACCT, the switch fluorescence ratio stood at 1.78.
